Our source for the binding values is article PMC3390797, “Regulation of ASIC channels by a stomatin/STOML3 complex located in a mobile vesicle pool in sensory neurons” (Open Biology, 2012).

Protein sequences, listed by entry. Tags and fused reporters are not part of them. Lines headed by an entry give the natural chain unless they say otherwise; changes in a name come on top. Chains listed by the source or under a name are the forms on record and can include a tag or linker.
Flag-tagged ASIC2b (Q62962-2, form named): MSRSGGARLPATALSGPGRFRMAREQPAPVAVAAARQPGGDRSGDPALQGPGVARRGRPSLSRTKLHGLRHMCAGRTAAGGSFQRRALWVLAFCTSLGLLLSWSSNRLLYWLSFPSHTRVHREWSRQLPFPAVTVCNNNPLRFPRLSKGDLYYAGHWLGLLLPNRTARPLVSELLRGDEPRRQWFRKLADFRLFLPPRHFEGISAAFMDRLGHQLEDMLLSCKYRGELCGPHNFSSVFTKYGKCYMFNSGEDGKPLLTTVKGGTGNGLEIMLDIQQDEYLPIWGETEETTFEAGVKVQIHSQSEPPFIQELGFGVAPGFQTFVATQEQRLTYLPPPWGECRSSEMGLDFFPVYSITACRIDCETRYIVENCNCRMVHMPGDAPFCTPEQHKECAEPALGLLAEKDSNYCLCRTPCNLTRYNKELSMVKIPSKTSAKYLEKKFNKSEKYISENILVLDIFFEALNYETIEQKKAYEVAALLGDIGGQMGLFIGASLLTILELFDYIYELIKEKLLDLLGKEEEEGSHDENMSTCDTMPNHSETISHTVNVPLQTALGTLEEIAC

Like-named read-outs stand apart in the source and are kept apart here. These are yes or no findings as the source states them, for the method shown. In cells and extracts the contact can be indirect. Some results given as binding are weak or reduced against the parent protein; the word gives no strength. Sequences can lack the tags named with a protein.

The target in test [1] is T1, Strep-tagged STOML3-AmCyan1 (stomatin-like protein-3, wild type) (mouse) (UniProt Q6PE84).
T1 sequence: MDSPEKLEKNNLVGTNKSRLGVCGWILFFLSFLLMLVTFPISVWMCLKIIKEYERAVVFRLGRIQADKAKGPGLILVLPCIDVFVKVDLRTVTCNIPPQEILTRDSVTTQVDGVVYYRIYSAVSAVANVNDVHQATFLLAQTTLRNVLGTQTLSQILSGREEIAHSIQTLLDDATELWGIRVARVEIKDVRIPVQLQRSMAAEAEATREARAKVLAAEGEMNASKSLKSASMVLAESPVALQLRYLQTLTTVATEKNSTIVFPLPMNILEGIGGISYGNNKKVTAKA
Nature of the test: co-IP; CHO cells transiently transfected with STOML3-Strep and ASICx-Flag or stomatin-Myc (1:1), 48 h; lysed in RIPA buffer (50 mM Tris pH 7.4, 300 mM NaCl, 1 mM EDTA, 0.5% deoxycholic acid, 0.5% Triton-X100, 0.1% SDS, 1 mM DTT); anti-Strep antibody and Protein G agarose overnight; blot with anti-Flag or anti-Myc.

Test [2] deals with T2, P40S STOML3 mutant protein (Strep-tagged, CFP-tagged) (mouse) (UniProt Q6PE84).
T2 sequence: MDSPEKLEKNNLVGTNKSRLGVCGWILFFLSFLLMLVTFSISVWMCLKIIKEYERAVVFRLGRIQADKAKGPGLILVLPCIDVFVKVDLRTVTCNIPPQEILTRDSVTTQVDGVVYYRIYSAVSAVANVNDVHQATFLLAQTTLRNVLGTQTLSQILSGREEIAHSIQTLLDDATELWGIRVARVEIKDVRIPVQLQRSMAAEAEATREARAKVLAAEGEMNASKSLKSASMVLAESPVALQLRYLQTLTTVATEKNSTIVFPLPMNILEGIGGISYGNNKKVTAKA
Described as above.

Test [3] concerns the target T3, STOML3-Δ1–128 (Strep-tagged, CFP-tagged) (mouse) (UniProt Q6PE84).
T3 sequence: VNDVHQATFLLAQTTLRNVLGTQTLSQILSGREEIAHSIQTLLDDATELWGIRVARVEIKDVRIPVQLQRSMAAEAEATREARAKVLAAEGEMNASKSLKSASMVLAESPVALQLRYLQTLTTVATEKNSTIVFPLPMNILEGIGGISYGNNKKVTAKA
The description is as above.

Test [4] deals with T4, STOML3Δ1–50 (Strep-tagged, CFP-tagged) (mouse) (UniProt Q6PE84).
T4 sequence: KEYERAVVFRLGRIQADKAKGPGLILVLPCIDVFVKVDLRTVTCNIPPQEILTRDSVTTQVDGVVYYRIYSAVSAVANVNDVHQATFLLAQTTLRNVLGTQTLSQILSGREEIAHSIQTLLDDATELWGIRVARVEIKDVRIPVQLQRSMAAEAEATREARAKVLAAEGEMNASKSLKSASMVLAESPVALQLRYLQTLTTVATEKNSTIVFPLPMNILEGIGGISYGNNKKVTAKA
Described as above.

Test [5] deals with T1, Strep-tagged STOML3-AmCyan1 (stomatin-like protein-3, wild type) (mouse). The description is as above. This is another data set of the same source.
The target in test [6] is T5, STOML3 fused to the N-terminal fragment of YFP (Venus) for BiFC (mouse) (UniProt Q6PE84).
T5 sequence: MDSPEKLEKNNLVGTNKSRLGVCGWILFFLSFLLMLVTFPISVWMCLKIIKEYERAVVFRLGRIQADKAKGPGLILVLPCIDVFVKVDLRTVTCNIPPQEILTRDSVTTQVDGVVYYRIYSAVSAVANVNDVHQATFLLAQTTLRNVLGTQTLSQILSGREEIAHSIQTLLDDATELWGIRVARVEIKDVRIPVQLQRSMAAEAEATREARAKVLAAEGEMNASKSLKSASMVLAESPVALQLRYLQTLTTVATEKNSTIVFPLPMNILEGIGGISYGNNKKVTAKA
The test can be described thus: split reporter; BiFC with Venus fragments VN173 and VC155; CHO cells transiently transfected with two plasmids, 24 h, fixed with 4 per cent PFA, epifluorescence.

The target of test [7] is stomatin fused to a fragment of YFP (Venus) for BiFC (mouse) (UniProt P54116). The test is described as above.

Take “Flag-tagged ASIC2b (from UniProt Q62962-2 1-563)”: in test [1], the binding entry is “binds”.

With “Flag-tagged ASIC2a (from UniProt Q62962-1 1-512)”, the binding result is “binds” in test [2], “no binding” in test [3], “no binding” in test [4] and “binds” in test [1].

B1: EYFP-tagged ASIC3 (natural protein, rat, UniProt O35240 1-533, looked up)
chain: MKPRSGLEEAQRRQASDIRVFASSCTMHGLGHIFGPGGLTLRRGLWATAVLLSLAAFLYQVAERVRYYGEFHHKTTLDERESHQLTFPAVTLCNINPLRRSRLTPNDLHWAGTALLGLDPAEHAAYLRALGQPPAPPGFMPSPTFDMAQLYARAGHSLEDMLLDCRYRGQPCGPENFTVIFTRMGQCYTFNSGAHGAELLTTPKGGAGNGLEIMLDVQQEEYLPIWKDMEETPFEVGIRVQIHSQDEPPAIDQLGFGAAPGHQTFVSCQQQQLSFLPPPWGDCNTASLDPDDFDPEPSDPLGSPRPRPSPPYSLIGCRLACESRYVARKCGCRMMHMPGNSPVCSPQQYKDCASPALDAMLRKDTCVCPNPCATTRYAKELSMVRIPSRASARYLARKYNRSESYITENVLVLDIFFEALNYEAVEQKAAYEVSELLGDIGGQMGLFIGASLLTILEILDYLCEVFQDRVLGYFWNRRSAQKRSGNTLLQEELNGHRTHVPHLSLGPRPPTTPCAVTKTLSASHRTCYLVTRL
notes: source: CHO cells, transiently transfected, in live cells
Turning to B1, the binding entry in test [5] is “binds”.

B2: EYFP-tagged ASIC4 (natural protein, mouse, UniProt Q7TNS7 1-539, looked up)
chain: MPIEIVCKIKFAEEDAKPKEKEAGDEQSLLGAAQGPAAPRDLATFASTSTLHGLGRACGPGPHGLRRTLWALALLTSLAAFLYQAASLARGYLTRPHLVAMDPAAPAPVAGFPAVTLCNINRFRHSALSDADIFHLANLTGLPPKDRDGHRAAGLRYPEPDMVDILNRTGHQLADMLKSCNFSGHHCSASNFSVVYTRYGKCYTFNADPQSSLPSRAGGMGSGLEIMLDIQQEEYLPIWRETNETSFEAGIRVQIHSQEEPPYIHQLGFGVSPGFQTFVSCQEQRLTYLPQPWGNCRAESELREPELQGYSAYSVSACRLRCEKEAVLQRCHCRMVHMPGNETICPPNIYIECADHTLDSLGGGSEGPCFCPTPCNLTRYGKEISMVKIPNRGSARYLARKYNRNETYIRENFLVLDVFFEALTSEAMEQQAAYGLSALLGDLGGQMGLFIGASILTLLEILDYIYEVSWDRLKRVWRRPKTPLRTSTGGISTLGLQELKEQSPCPSRGRAEGGGASSLLPNHHHPHGPPGSLFEDFAC
notes: as for B1
For the molecule B2, in test [5], the binding result is listed as “binds”.

B3: EYFP-tagged ASIC1b (natural protein, mouse, UniProt Q6NXK8-2 1-559, looked up)
chain: MPIQIFCSVSFSSGEEAPGSMGDIWGPHHHHRQQQDSSESEEEEEKEKESGMELDEGDSPRDLVAFANSCTLHGASHVFVEGGPGPRQALWAVAFVIALGAFLCQVGDRVAYYLSYPHVTLLDEVATTELVFPAVTFCNTNAVRLSQLSYPDLLYLAPMLGLDESDDPGVPLAPPGPEAFSGEPFNLHRFYNRSCHRLEDMLLYCSYCGGPCGPHNFSVVFTRYGKCYTFNSGQDGRPRLKTMKGGTGNGLEIMLDIQQDEYLPVWGETDETSFEAGIKVQIHSQDEPPFIDQLGFGVAPGFQTFVSCQEQRLIYLPSPWGTCNAVTMDSDFFDSYSITACRIDCETRYLVENCNCRMVHMPGDAPYCTPEQYKECADPALDFLVEKDQEYCVCEMPCNLTRYGKELSMVKIPSKASAKYLAKKFNKSEQYIGENILVLDIFFEVLNYETIEQKKAYEIAGLLGDIGGQMGLFIGASILTVLELFDYAYEVIKHRLCRRGKCQKEAKRNSADKGVALSLDDVKRHNPCESLRGHPAGMTYAANILPHHPARGTFEDFTC
notes: as for B1
As for B3, the binding result in test [5] was “binds”.

B4: stomatin fused to a fragment of YFP (Venus) for BiFC (protein, UniProt P54116 1-284)
chain: MSDKRQSSHVQSQRIPESFRENSKTELGACGWILVAASFFFVIITFPISIWICIKIVKEYERVIIFRLGRILQGGAKGPGLFFILPCTDSLIKVDMRTISFDIPPQEVLTKDSVTISVDGVVYYRVQNATLAVANITNADSATRLLAQTTLRNALGTKNLSQILSDREEIAHHMQSTLDDATDDWGIKVERVEIKDVKLPVQLQRAMAAEAEAAREARAKVIAAEGEMNASRALKEASMVITESPAALQLRYLQTLTTIAAEKNSTIVFPLPVDMLQGIMGSNH
Turning to B4, the binding result in test [6] and in test [7] was “binds” in each case.

B5: EYFP-tagged ASIC1a (natural protein, mouse, UniProt Q6NXK8-1 1-526, looked up)
chain: MELKTEEEEVGGVQPVSIQAFASSSTLHGLAHIFSYERLSLKRALWALCFLGSLAVLLCVCTERVQYYFCYHHVTKLDEVAASQLTFPAVTLCNLNEFRFSQVSKNDLYHAGELLALLNNRYEIPDTQMADEKQLEILQDKANFRSFKPKPFNMREFYDRAGHDIRDMLLSCHFRGEACSAEDFKVVFTRYGKCYTFNSGQDGRPRLKTMKGGTGNGLEIMLDIQQDEYLPVWGETDETSFEAGIKVQIHSQDEPPFIDQLGFGVAPGFQTFVSCQEQRLIYLPSPWGTCNAVTMDSDFFDSYSITACRIDCETRYLVENCNCRMVHMPGDAPYCTPEQYKECADPALDFLVEKDQEYCVCEMPCNLTRYGKELSMVKIPSKASAKYLAKKFNKSEQYIGENILVLDIFFEVLNYETIEQKKAYEIAGLLGDIGGQMGLFIGASILTVLELFDYAYEVIKHRLCRRGKCQKEAKRNSADKGVALSLDDVKRHNPCESLRGHPAGMTYAANILPHHPARGTFEDFTC
notes: as for B1
Take B5: in test [5], the binding result is recorded as “binds”.
